# Measurements: PubChem BioAssay AID686979 (National Center for Advancing Translational Sciences (NCATS), 2013)
# About 50,000 (12%) of roughly 420,000 compounds were called active. Inconclusive results, whose numbers are uncertain, are shown with a selection of clear calls. Calls follow the shape of the dose curve; as a rule, active = well fitted inhibition curve with a large enough effect; inconclusive = small, poorly fitted or top-dose-only effect; inactive = flat fitted curve, though single readings scatter. Potencies of inconclusive entries are left out as doubtful fits.
# Test: qHTS for Inhibitors of human tyrosyl-DNA phosphodiesterase 1 (TDP1): qHTS in cells in presence of CPT; also: nearly all actives have a fitted effect of over 55% in size
# Conditions: chicken DT40 Tdp1-/-;hTDP1 cells + 20 nM CPT, ATP luminescence, 48 h; activity change, negative = growth inhibition: at 46.2 µM (top of the series)
# In short: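 Chicken DT40 Tdp1-/- cells stably complemented with human TDP1 were seeded at 400 cells/well in medium containing 20 nM camptothecin, exposed to pin-transferred compounds, and grown at 37 °C for at least 48 hr. Viability was read as ATP luminescence.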
# % is scaled to controls: 0 for no effect and ±100 for the full control effect; potency is read from the fitted curve at half-maximal effect; tags tell the direction and shape of the fitted curve.
Structure (SMILES),"activity change, negative = growth inhibition",Potency
CC(C)N1CCC(N2CCN(CC#Cc3ccccc3)CC2CCO)CC1 (centres undefined),inactive: -0.138%,–
CC(C)(C)c1ccc(C(=O)N2CCCC(c3nc4c(nnn4Cc4cccc(F)c4)c(=O)[nH]3)C2)cc1 (centres undefined),–,"inconclusive [inhibitor, single point]"
COc1ccc(OC)c(NC(=O)C(=O)NNC(=O)C23CC4CC(CC(C4)C2)C3)c1,–,"inconclusive [inhibitor, single point]"
CC(=O)Nc1ccc(N=Cc2c(O)c(C(=O)Nc3ccccc3)cc3ccccc23)cc1,–,"inconclusive [inhibitor, single point]"
[O-]c1n[n+](-c2ccc(Cl)cc2)cc2ccccc12,–,"inconclusive [inhibitor, single point]"
O=C1CC(N(O)C2CC(=O)N(Cc3ccccc3)C2=O)C(=O)N1Cc1ccccc1 (centres undefined),–,active: 20.6 µM
COc1ccc(NC(=O)C2(C)Cc3c(-c4ccc(NC(C)=O)cc4)ccnc3O2)cn1 (centres undefined),–,active: 20.6 µM
COc1ccc(N2CCN(Cc3nc4c(c(=O)n(C)c(=O)n4C)n3C(C)C)CC2)cc1,–,active: 1.03 µM
Cc1cc(C)cc(NC(=O)Cn2c(=O)n(-c3ccc(C)c(C)c3)c(=O)c3oc4ccccc4c32)c1,inactive: 8.21%,–
O=C(O)c1ccccc1NC(=O)c1cc2ccccc2oc1=O,–,"inconclusive [inhibitor, partial curve]"
CCCC1CCC(=C(C#N)C(N)=O)CC1 (centres undefined),inactive: 20.3%,–
Cc1nc(CN2CCN(Cc3nc(C(c4ccccc4)c4ccccc4)no3)CC2)cs1,–,active: 7.31 µM
CCSc1nnc(-c2cccs2)o1,inactive: -8.17%,–
CC(O)(COc1ccccc1)c1ccc2c(c1)CN(Cc1cccn1-c1ccccn1)CCO2 (centres undefined),inactive: -11.2% [at 9.04 µM],–
CCC(C)(C)n1nnnc1C(c1ccc(C)cc1)N1CCN(C(=O)c2ccco2)CC1 (centres undefined),–,"inconclusive [inhibitor, single point]"
Cn1nc(C(F)(F)F)c(C#N)c1N1CCN(c2ccc(F)cc2)CC1,–,"inconclusive [inhibitor, partial curve]"
CC(C)(C)NC(=O)NC(=O)CSc1ccc(S(=O)(=O)N2CCOCC2)cn1,–,"inconclusive [inhibitor, partial curve]"
CS(=O)(=O)c1ccc(Cl)c(NC(=O)CN2CCN(S(=O)(=O)/C=C/c3ccccc3)CC2)c1,–,"inconclusive [inhibitor, single point]"
CC(C)N(CC(N)=O)c1ncnc2sc(-c3ccccc3)cc12,–,"inconclusive [inhibitor, single point]"
O=c1c2ccccc2nc(-c2ccccc2)n1O,–,active: 2.06 µM
CCN1C=CC2=C(C#N)C(N)C(C#N)(C#N)C(c3ccccc3C(F)(F)F)C2C1 (centres undefined),–,"inconclusive [inhibitor, single point]"
CN(C)c1ccc(/C=C2\N=C(c3ccc(Cl)c([N+](=O)[O-])c3)NC2=O)cc1,–,"inconclusive [inhibitor, partial curve, poor fit]"

Structure (SMILES),"activity change, negative = growth inhibition",Potency
Cc1ccc2nc(CN3CCN(S(=O)(=O)c4ccc(C(C)C)cc4)CC3)oc2c1,inactive: -28.3%,–
COc1cc(C(=O)Nc2cccc(C)c2C)c(Br)c(OC)c1OC,inactive: -1.93%,–
Cc1ccc2occ(CC(=O)Nc3ccc(S(=O)(=O)N4CCCC(C)C4)cc3)c2c1 (centres undefined),–,"inconclusive [inhibitor, single point]"
Cc1ccccc1Cn1nnc2c(=O)[nH]c(C3CCN(C(=O)c4ccccc4Cl)CC3)nc21,–,active: 16.4 µM
COc1cc(N)c(Cl)cc1C(=O)OC(C)C(=O)Nc1cccc(S(=O)(=O)N2CCOCC2)c1 (centres undefined),–,"inconclusive [inhibitor, single point]"
COc1ccc(NC(=O)CN2C(=O)CSc3ccc(S(=O)(=O)N(C)C)cc32)cc1Cl,–,active: 23.1 µM
CCCCn1cnc2sc3c(c2c1=N)CCCC3,–,"inconclusive [inhibitor, single point]"
O=C(c1ccco1)N1CCN(S(=O)(=O)c2ccc3c(c2)CCN3C(=O)C2CCC2)CC1,–,"inconclusive [inhibitor, partial curve]"
CN(Cc1ccc(Cl)cc1)C(CCc1ccccc1)C(=O)NC1CCCCC1 (centres undefined),–,"inconclusive [inhibitor, single point]"
COc1ccc(CNC(=O)CCCn2c(=O)c3cccn3c3ccc(F)cc32)cc1OC,–,active: 18.4 µM
Cc1ccc(-n2ncc(C(=O)NCc3ccccn3)c2C2CCN(C(=O)OC(C)(C)C)CC2)c(C)c1,–,"inconclusive [inhibitor, single point]"
O=C1CS/C(=N\NC(=O)c2ccccc2)N1,inactive: 11.4%,–
COC(=O)c1c(C)[nH]c(C(=O)OCC(=O)NC(C)(C)C)c1C,inconclusive: -33.7% [inhibitor],–
Cc1ccc(Cn2nnc(C(=O)Nc3cccc(C)c3C)c2N)cc1,–,"inconclusive [inhibitor, single point]"
Cc1ccc(/C=N/Nc2nnc(Cl)c3ccccc23)cc1,–,active: 23.1 µM
Cc1ccc(C)c(NC(=O)c2ccccc2Sc2ccc([N+](=O)[O-])cc2Cl)c1,–,"inconclusive [inhibitor, single point]"
C=CCn1c(-c2csc3ccccc23)n[nH]c1=S,inactive: -4.83%,–
Cc1ccc(S(=O)(=O)N2C[C@H]3n4c(=O)ccc(=O)n4C[C@H](OC(=O)NC4CCCC4)[C@@]3(O)C2)cc1,–,"inconclusive [inhibitor, single point]"
CC(C(=O)c1ccccc1)[n+]1cccc(Br)c1 (centres undefined),–,"inconclusive [inhibitor, single point]"
COC(=O)C1=C(C)N(Cc2ccccc2)C(=NCCc2c[nH]c3ccccc23)N[C@H]1c1cccc(C(F)(F)F)c1,–,"inconclusive [inhibitor, single point]"
COc1ccc(CNC2CCN(Cc3ccccc3)CC2)cc1,–,"inconclusive [inhibitor, single point]"
Cc1cc(S(=O)(=O)N2CCN(c3ccc(F)cc3)CC2)ccc1-n1cnnn1,inactive: -24.3%,–
